41 variants from the RNAGym collection of RNA variant scans (doi:10.7554/elife.90254) can be followed below.

Read counts are not given, so values of variants with three or more changes are uncertain.

To fix the notation:
B1: OR4K15 (parent)
chain: GUUAACGGUCAUAGGCCAUGGAAACUAGGAGCACCAUUUCGCUGCCAGUGAAGAAAUGAACAAAGAAAAUCUGGGCCAGGCAGGCAUCAAAAGAAAUAGUCUUGCGCUCAACCAGAAAGUCUGUAAUCAUUUUAAGGGUA

This data set covers variants of B1. As to the kind of experiment: self-cleavage, relative activity (ratio to wild type); higher = more cleavage; in vitro, sequencing; the parent is a self-cleaving ribozyme.
Consider GUUAACGGUCAUAGGCCAUGGAAACUAGGAGCACCAUUUCGCUGCCAGUGAAGGAAUGAACAAGGAGAAUCUGGGCCAGGCAGGCAUCAAAAGAAAUAGUCUUGCGCUCAACCAGAAAGUCUGUAAUCAUUUUAAGGGUA [A54G A64G A67G], for which the self-cleavage is 1.09.
GUUAACGGUCAUAGGCCAUGGAAACUAGGAGCACCAUUUCGCUGCCAGUGAAGGAAUGAACAAAGAAAAUCUGGGCCAGGCAGGCGUCAAAAGAAAUAGUCUUGCGCUCAACCAGAGAGUCUGUAAUCAUUUUAAGGGUA [A54G A86G A117G]: the self-cleavage stood at 1.07.
The same measure for GUUAACGGUCAUAGGCCAUGGAAACUAGGAGCACCAUUUCGCUGCCAGUGAAGGAAUGAACAAAGAAAGUCUGGGCCAGGCAGGCAUCAAAAGAAAUAGCCUUGCGCUCAACCAGAAAGUCUGUAAUCAUUUUAAGGGUA [A54G A69G U100C]: 1.55; for GUUAACGGUCAUAGGCCAUGGAAACUAGGAGCACCAUUUCGCUGCCAGUGAAGGAAUGAACAAAGAAAAUCUGGGCCGGGCAGGCAUCAAAAGAAAUAGCCUCGCGCUCAACCAGAAAGUCUGUAAUCGUUUUAAGGGUA [A54G A78G U100C U103C A129G]: 0.17; for GUUAACGGUCAUAGGCCAUGGAAACUAGGAGCACCAUUUCGCUGCCAGUGAAGGAAUGAACAAAGAAAAUCUGGGCCAGGCAGGCAUCAAAUGAAAUAGUCUUGCGCUCAACCAGAAAGUCUGUAGUCAUUUUAAGGGUA [A54G A92U A126G]: 0.65.
The value for GUUAACGGUCAUAGGCCAUGGAAACUAGGAGCACCAUUUCGCUGCCAGUGAAGGAAUGAACUAAGUAAAUCUGGGCCAGGCAGGCAUCAAAAGAAAUAGUCUUGCGCUCAACCAGAAAGUCUGUAAUCAUUUUAAGGGUA [A54G A62U A66U] was 2.17; that for GUUAACGGUCAUAGGCCAUGGAAACUAGGAGCACCAUUUCGCUGCCAGUGAAGGAAUGAACAAAGAAAAUCUGGGCCAGGCAGGCAUCGAAAGAAAUAGUCUUGCGCUCAACCAGAAAGCCUGUAAUCAUUUUAAGGGUA [A54G A89G U120C] was 0.31.
The value for GUUAACGGUCAUAGGCCAUGGAAACUAGGAGCACCAUUUCGCUGCCAGUGAAGGAAUGAACAAAGAAAAUCUGGGCCGGGCAGGCAUCAAAAGAAAUAGUCUUGCGCUCAGCCAGAAAGUCUGUAAUCACUUUAAGGGUA [A54G A78G A111G U130C] was 0.
As for GUUAACGGUCAUAGGCCAUGGAAACUAGGAGCACCAUUUCGCUGCCAGUGAAGGAAUGAACAAAGAAAAUCUGGGCCAGGCAGGCAUCAGAAGAAAUAGUCUUGCGCUCAACCAGAAAGUCUGUAAUCAUUUUAAGGGCA [A54G A90G U139C], the self-cleavage is 1.18.
The same measure for GUUAACGGUCAUAGGCCAUGGAAACUAGGAGCACCAUUUCGCUGCCAGUGAAGGAAUGAGCAAAGAAAAUCUGGGCCAGGCAGGCAUCAAAAGAAAUAGUCUUGCGCUCAACCAGAAAGCCUGUAAUUAUUUUAAGGGAA [A54G A60G U120C C128U U139A]: 0.4; for GUUAACGGUCAUAGGCCAUGGAAACUAGGAGCACCAUUUCGCUGCCAGUGAAGGAAUGAACAAAGAAAAUCUGGGCCAGGCAGGCUUCAAAAGAAAUAGUCUUGCGCUCAACCAGAAAGUCUGUAAUCACUUUAAGGGUA [A54G A86U U130C]: 1.72; for GUUAACGGUCAUAGGCCAUGGAAACUAGGAGCACCAUUUCGCUGCCAGUGAAGGAAUGAACAAAGAAAAUCUGGGCCAGGCUGGCAUCAAAAGAAGUAGUCUUGCGCUCAACCAGAAGGUCUGUAAUCAUUUUAAGGGUA [A54G A82U A96G A118G]: 0.19.
For the variant GUUAACGGUCAUAGGCCAUGGAAACUAGGAGCACCAUUUCGCUGCCAGUGAAGGAAUGAACAAAGAAAAUCUGGGCCAGGCAGGCAUCAAAGGAAAUAGUCUUGCGCUCAACCAGAAAGUCUGUAAUCAUCUUAAGGGUA [A54G A92G U131C], the self-cleavage was 1.26.
The same measure for GUUAACGGUCAUAGGCCAUGGAAACUAGGAGCACCAUUUCGCUGCCAGUGAAGGAAUGGACAAAGAAAAUCUGGGCCAGGCAGGCAUCAAAAGAAAUAGUCUUGCGCUCAACCUGAAAGUCUGUAAUCAUUUUAAGGGUA [A54G A59G A114U]: 0.13; for GUUAACGGUCAUAGGCCAUGGAAACUAGGAGCACCAUUUCGCUGCCAGUGAAGGAAUGAACAAAGAAAAUCUGGGCCAGGCAGGCGUCAAAAGAAACAGUCUUGCGCUCAACCAGAAAGUCUGUAAUCAUUUUAAGGGUA [A54G A86G U97C]: 0.81; for GUUAACGGUCAUAGGCCAUGGAAACUAGGAGCACCAUUUCGCUGCCAGUGAAGGAAUGAACGAAGAAAAUCUGGGCCAGGCAGGCAUCAAAAGAAAUCGUCCUGCGCCCAACCAGAAAGUCUGUAAUCAUUUUAAGGGUA [A54G A62G A98C U102C U108C]: 0.01.
The same measure for GUUAACGGUCAUAGGCCAUGGAAACUAGGAGCACCAUUUCGCUGCCAGUGAAGGAAUGAACAAAGAAUAACUGGGCCAGGCAGGCACCAAAAGAAAUAGUCCUGCGCUCAACCAGAAAGUCUGUAAUCAUUUUAAGGGUA [A54G A68U U70A U87C U102C]: 1.16; for GUUAACGGUCAUAGGCCAUGGAAACUAGGAGCACCAUUUCGCUGCCAGUGAAGGAAUGAACAAAGAAGAUCUGGGCCAGGCAGGCAUCAAAAGAAAUAGUCUUGCGCACAACCAGAAAGUCUGUAAUCAUUUUAAGGGUA [A54G A68G U108A]: 0.01; for GUUAACGGUCAUAGGCCAUGGAAACUAGGAGCACCAUUUCGCUGCCAGUGAAGGAAUGAACAAAGAAAAUCUGGGCCAGGCAGGCAUCUAAAGAAAUAGUCUUGCGCUCAACCAGAAAGUCUGUAAUCAUUCUAAGGGUA [A54G A89U U132C]: 1.46.
As for GUUAACGGUCAUAGGCCAUGGAAACUAGGAGCACCAUUUCGCUGCCAGUGAAGGAAUGAACGAAGAAAAUCUGGGCCAGGCAGGCAUCAAAAGAAAUAGUCUUGCGCUCAACCAGAAAGUCUGUAAUCACUUUAAGGGUA [A54G A62G U130C], the self-cleavage amounted to 1.31.
The value for GUUAACGGUCAUAGGCCAUGGAAACUAGGAGCACCAUUUCGCUGCCAGUGAAGGAAUGAACAAAGAAAAUCUGGGCCAGGCAGGCAUCGAAAGGAAUAGUCUUGCGCUCAACCAGAAGGUCAGUAAUCAUUUUAAGGGUA [A54G A89G A94G A118G U122A] was 0.19; that for GUUAACGGUCAUAGGCCAUGGAAACUAGGAGCACCAUUUCGCUGCCAGUGAAGGAAUGAACAAAGGAAAUCUGGGCCAGGCAGGCAUCAAAAGAAACAAUCUUGCGCUCAACCAGAAAGUCUGUAGUCAUUUUAAGGGUA [A54G A66G U97C G99A A126G] was 0.38.
The same measure for GUUAACGGUCAUAGGCCAUGGAAACUAGGAGCACCAUUUCGCUGCCAGUGAAGGAAUGGACAAAGAAGAUCUGGGCCAGGCAGGCAUCAAAAGAAAUAGUCUCGCGCUCAACCAGAAAGUCUGUAAUCAUUUUAAGGGUA [A54G A59G A68G U103C]: 0.3; for GUUAACGGUCAUAGGCCAUGGAAACUAGGAGCACCAUUUCGCUGCCAGUGAAGGAAUGAACAAAGAAAAUCUGGGCCAGGCAGGCAUCAAAAGGAAUAGUCUUGCGCUCAACCGGAAAGUCUGUAAUCAUUUUAAGGGUA [A54G A94G A114G]: 0.22; for GUUAACGGUCAUAGGCCAUGGAAACUAGGAGCACCAUUUCGCUGCCAGUGAAGGAAUGAACAAAGAAAAUCUGGGCCAGGCAGGCAUCAAAGGAAAUAGUCUUGCGCUCAACCGGAAAGUCUGUAAUCAUUUUAGGGGUA [A54G A92G A114G A135G]: 0.14.
Regarding GUUAACGGUCAUAGGCCAUGGAAACUAGGAGCACCAUUUCGCUGCCAGUGAAGGAAUGUACAAAGAAAAUCAGGGCCAGGCAGGCAUCAAAAGAAAUAGUCUUGCGCUCAACCAGAAAGUCUGUAAUCAUUUUAAGGGUA [A54G A59U U72A], the self-cleavage was 0.28.
With GUUAACGGUCAUAGGCCAUGGAAACUAGGAGCACCAUUUCGCUGCCAGUGAAGGAAUGAACAAAGAGAAUCUGGGCCAGGCAGGCAUCAAAAGAAAUAGUCUUGCGCUCAACCAGAAAGUCUGGAAUCAUUUUAAGGGUA [A54G A67G U124G], the self-cleavage is 1.47.
The same measure for GUUAACGGUCAUAGGCCAUGGAAACUAGGAGCACCAUUUCGCUGCCAGUGAAGGAAUGAACAGAGAAAAUCUGGGCCAGGCAGGCAUCAAAAGAAAUAGUCUUGCGCUCAACCGGAAAGUCAGUAAUCAUUUUAAGGGUA [A54G A63G A114G U122A]: 0.34; for GUUAACGGUCAUAGGCCAUGGAAACUAGGAGCACCAUUUCGCUGCCAGUGAAGGAAUGGACAAAGAAAAUCUGGGCCAGGCAGGCAUCAAAAGGAAUAGUAUUGCGCUCAACCAGAGAGUCUGUAAUCGUUUUAAGGGUA [A54G A59G A94G C101A A117G A129G]: 0.05.
In the case of GUUAACGGUCAUAGGCCAUGGAAACUAGGAGCACCAUUUCGCUGCCAGUGAAGGAAUGAACAAAGAAGAUCUGGGCCAGGCAGGCAUCAGAAGAAAUAGUCUUGCGCUCAACCAGAAAGUCUGUAAUCAUUUUAAGGGUA [A54G A68G A90G], the self-cleavage was found to be 1.24.
As to GUUAACGGUCAUAGGCCAUGGAAACUAGGAGCACCAUUUCGCUGCCAGUGAAGGAAUGAGCAAAGAAAAUCUGGGCCAGGCAGGCAUCAAAAGAAAUAGUCUUGCGCUCAACCAGAAAGUCUGUAAUCACUUUAAGGGUA [A54G A60G U130C], the self-cleavage is 0.85.
As to GUUAACGGUCAUAGGCCAUGGAAACUAGGAGCACCAUUUCGCUGCCAGUGAAGGAAUGAACAAAGAAAAUCUGGGCCAGGCGGGCAUCAAAAGAAAUAGUCUUGCGCUCAACCAGAACGUCUGUAAUCAUUUUAAGGGGA [A54G A82G A118C U139G], the self-cleavage came out at 0.35.
The value for GUUAACGGUCAUAGGCCAUGGAAACUAGGAGCACCAUUUCGCUGCCAGUGAAGGAAUGAGCAAAGAAAAUCUGGGCCAGGCAGGCAUCAAAAGAAAUAGUCUUGCGCUCAACCAGAAAGUCUGUAAUCAUUUUAAAGGUA [A54G A60G G136A] was 0.95; that for GUUAACGGUCAUAGGCCAUGGAAACUAGGAGCACCAUUUCGCUGCCAGUGAAGGAAUGAUCAAAGAAAGUCUGGGCCAGGCAGGCAUCAAAAGAAAUAGUCUUGCGCUCAACCAGAAAGCCUGUAAUCAUUUUAAGGGUA [A54G A60U A69G U120C] was 0.67.
On to GUUAACGGUCAUAGGCCAUGGAAACUAGGAGCACCAUUUCGCUGCCAGUGAAGGAAUGAACAAAGAAGAUCUGGGCCAGGCAGGCAUCAAAAGAAAUAGCCUUGCGCUCAACCAGAAAGUCUGUAAUCAUUUUAAGGGUA [A54G A68G U100C], for which the self-cleavage amounted to 1.42.
The same measure for GUUAACGGUCAUAGGCCAUGGAAACUAGGAGCACCAUUUCGCUGCCAGUGAAGGAAUGAACAAAGGAAAUCUGGGCCAGGCGGGCAUCAAAAGAAAUAGUCUUGCGCUCAACCAGAAAGUCUGUAAUCGUUUUAAGGGUA [A54G A66G A82G A129G]: 0.37.
The value for GUUAACGGUCAUAGGCCAUGGAAACUAGGAGCACCAUUUCGCUGCCAGUGAAGGAAUGAACAAAGAAAAUCUGGGCCAGGCAGGCAUCGAAAGAAAUAGUCUAGCGCUCAACCAGAAAGUCUGUAAUCAUUUUAAGGGUA [A54G A89G U103A] was 0.16; that for GUUAACGGUCAUAGGCCAUGGAAACUAGGAGCACCAUUUCGCUGCCAGUGAAGGAAUGAACGAAGAAAAUCUGGGCCAGGCAGGCAUCAGAAGAAAUAGUCUUGCGCUCAACCAGAAAGUCUGUAAUCAUUUUAAGGGUA [A54G A62G A90G] was 0.51; that for GUUAACGGUCAUAGGCCAUGGAAACUAGGAGCACCAUUUCGCUGCCAGUGAAGGAAUGAACAGAGAAAAUCUGGGCCAGGCAGGCGUCAAAAGAAAUAGUCUUGCGCUCAACCAGAAAGUCUGUAAUCAUUUUAAGGGUA [A54G A63G A86G] was 1.95.
The value for GUUAACGGUCAUAGGCCAUGGAAACUAGGAGCACCAUUUCGCUGCCAGUGAAGGAAUGAACAAAGAAAAUCUGGGCCAGGCAGGCAUCGAAAGAAGUAGUCUUGCGCACGACCAGAAAGUCUGUAAUCAUUUUAAGGGUA [A54G A89G A96G U108A A110G] was 0.03.
Regarding GUUAACGGUCAUAGGCCAUGGAAACUAGGAGCACCAUUUCGCUGCCAGUGAAGGAAUGAACGAAGAAAAUCUGGGCUAGGCAGGCAUCAAAAGAAAUAGUCUUGCGCUCAACCAGAGAGUCUGUAAUCAUUUUAAGGGUA [A54G A62G C77U A117G], the self-cleavage worked out at 2.36.
